PMC10726135
Some of the results follow. At the low end of the ranking the order means little. Measured with an extract: partners may take part in the binding.

These sequences were tested against T1, HNF4alpha8 (COS-7 nuclear extract) (UniProt P41235-5) (assay: protein-binding microarray). Details: COS-7 nuclear extract on double-stranded Agilent 4x180k PBM; binding buffer, salt, pH and temperature not given; high values mean tight binding; double strand, one strand shown; sequences stand for … in …GCCTAGGGAGATTAGAGTATCGGTCGA.
T1 sequence: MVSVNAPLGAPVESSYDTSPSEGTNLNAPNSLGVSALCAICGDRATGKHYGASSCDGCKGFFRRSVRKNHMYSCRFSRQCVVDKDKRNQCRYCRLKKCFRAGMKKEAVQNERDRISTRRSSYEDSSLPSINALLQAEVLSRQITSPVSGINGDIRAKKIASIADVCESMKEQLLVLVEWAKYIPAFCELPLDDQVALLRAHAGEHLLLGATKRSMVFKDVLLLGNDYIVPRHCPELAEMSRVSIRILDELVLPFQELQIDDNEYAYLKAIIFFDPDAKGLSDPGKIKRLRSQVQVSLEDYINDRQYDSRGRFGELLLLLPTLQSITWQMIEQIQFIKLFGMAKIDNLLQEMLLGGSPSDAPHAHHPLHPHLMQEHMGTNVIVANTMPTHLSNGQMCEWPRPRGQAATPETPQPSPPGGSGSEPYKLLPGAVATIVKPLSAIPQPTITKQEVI

| Sequence | binding signal (log2 normalized intensity) |
| --- | --- |
| AGGGTGACACTGCTCTCTCCAGGGGAGGGT | -1.31 |
| AACCCCCAAAACTGCCTGATAATCTTATCA | 2.77 |
| GTGAGGCTGTGATGTTTGCCCATGATCATA | 0.346 |
| GGCTGTTTCACAAGTTTAGCCAAGCAAACA | -1.21 |
| GGGGTAAGCAAGGCTCTTAGCAGAAGCCCT | -1.43 |
| ATAATGTCAAAAATCTTAAGGAGGAGTGCT | -1.35 |
| TAGAACTCAGTGTGAACTCAATGCTGCTGA | -1.4 |
| AGAATTACAAACAGCCCTGACATTCTTGAG | -1.09 |
| TCCCCACGTGGCAATCATTCTGTCTGCCTT | -0.77 |
| CATTGCCACACTATTTACACAGCTGATGGA | -1.28 |
| AGGCCAAACAAAAATATGGACTTTGGAATT | 8.4 |
| CTCCAGAGTCCAAACTGGGACCTGTGACAC | 1.35 |
| TATCTCCTCTGTAGGGCAGCAGCCGGCCTC | -1.28 |
| CTGAATCTCCCAGTGCTTTGATCTTCAACT | 0.419 |
| ATTATCTTTATTATCCCAGTAGAGAAACAA | 0.637 |
| GCAAGGCATGGTGCTTCGCACTTCAGCACC | 1.86 |
| TTTCCCAACAGGTGTTAAAATAACGACCTT | 2.41 |
| CCACACTGGTAACCTTTAGTCTCCAGATAA | 2.95 |
| AAGGTGGAACTCAAGATAGTTCAGCCATCA | -1.39 |
| CAGCTTGATAATCCCCATGGGACCAATACA | -1.16 |
| TTTGCACTTGTTTTTTCAGGTGTTGCTCTC | 1.51 |
| GTCCTACAGGACATTAATCAGTCGCGTATC | -1.19 |
| TCGGGATTATGGTAGGCAGCCTCTGAGATG | -1.42 |
| TTGACCGCTGCCTCCCACCCCCACGGTGCG | 5.08 |
| CATGGTGACTCTAGTCAATGTATTTTATTC | 1.11 |

| Sequence | binding signal (log2 normalized intensity) |
| --- | --- |
| CTGGCTTCCCTTTGATCTTTCCCTTCCTGG | 1.4 |
| AGTAACAGGGCACATGTACACAGGAATATC | -1.27 |
| TTTAGGGTAGCCTGGGTTAAAGTCCGTTAC | 5.51 |
| CCCGTGTGGCCGCGAGCACCGCGCGCGCAA | -1.18 |
| CACACTGGGAATTGGGATGGCAGCTTCATT | -1.29 |
| ACCCAGTCTTAGGGACTAAGCTTGTAGACC | -1.27 |
| CAAAACTGGAAATTCACGTCATTTTGTCAC | 0.672 |
| AATCCCTTAGGCTTTTGCACTTTACTCAGA | 3.94 |
| TGTCACACTGGCCTTTGCCCTCGCTGGCGG | 5.25 |
| GAATGGCCAGAGTTCCTGTGCAAGCCCCTG | -0.986 |
| GCTGATGGGACCAAAGGTGAAGGGGTCACC | 4.33 |
| TGAAACTCAGCATACAATGAATATTCAGAC | -1.24 |
| TGGGGCAGGGAAATATGTTCCACCCAGGGT | -1.13 |
| TAACCTTCTGCTGGATGCCCAGGGATTCCT | -1.27 |
| GTTGAACCTCTGTCCTTGGCCTCACAGACA | -1.01 |
| TTATCCCTCACAATCTTAAGATAAGGTCTT | 0.934 |
| GATGTTTAGCTATCAGTGTTGACCTCTGGA | 6.06 |
| CTTGCCCAAGGGCATGGGAAGCAGTGAGGG | -1.36 |
| AAGGAAACTGCTTGGGCCCCTCCCTCACAC | 2.16 |
| CTGAATGAGCTCTGGGGTCCTCTGCTGCCC | 1.32 |
| CAACGGTGAGTCAAGCACTTCTCACATCAC | -1.39 |
| GATAGGCAAAGTGGCTAGGACCTTTGAACC | 7.23 |
| TTCCTCCCACTCTGACATCCCCCTTTCTCT | 3.43 |
| CCCCCATTTGGTAATGGGCCCCCATTACCA | 3.9 |
| GATTAAAAGCACATAAGAGAAAAATCTTCA | -1.27 |

| Sequence | binding signal (log2 normalized intensity) |
| --- | --- |
| TCATTTCTGCTTGCAACCAAAGGAGTCCTG | -0.447 |
| TATTTTAAGTTGCAATGCATGCTGCCAAAC | -1.41 |
| CCATCCTCCCACCTCAGCCTCTTGAGTAGC | 1.58 |
| ACTTGGCTCACATGATTGTGGAGGATGGGA | 0.476 |
| AAGGGTCAGCCTGCAAGTTAGGACAGCCCC | 1.53 |
| TAAAAGGTAACATCAAAGCCAGGACTTCTA | -1.29 |
| ACAGCAGGCTCACAAGATTGCATTCTTTGA | -1.38 |
| CAAGCTGACAAACATGTATCAGTGATAGAC | -0.0274 |
| CTAAAGGAAGGGAGGTGAGTGCTAGCATTG | -1.23 |
| CTCTCCTATTCAGGTATTTGCTCTGTGATA | 1.2 |
| CTGTTCGATGTATACAGTATCTATAGTTAT | 1.1 |
| GTCTTGAGCGCAAATGATCAAAGGTCGGTT | 6.58 |
| TTCAGTCTTTGTCTTAGCCTGCTCTTTTCC | 1.12 |
| CTGCTTCCAAAACATTGTAGAATTATCCAG | -0.813 |
| ATCTTAGCTTCAGCTTTGCTTAGACCGGCA | -1.21 |
| CAAAGGTTGGACTGAGGACCACATGAGTAA | 0.766 |
| GGTGGTTTGGGTAATAACATGTAATTGCAT | 0.771 |
| GTACATTGCACCCTCCAGGAGCCCCTTACC | 2.01 |
| TCTAATGAACTGATTAGAACATTAAGTCCA | 1.5 |
| CTTATCCAAAGCTGCTGGGAGGTAGCTCAA | -1.12 |
| TCCTGGGAGAACAAACCTTATCTCTCAAGG | -1.24 |
| GCTAGAGAAAAAGAAAAGCCTTGTGGCAGT | -1.26 |
| CCTTGTTCTCAGAGATCAAAGGTGAGTGGG | 4.22 |
